# Test results published in paper PMC4336329 (PLoS ONE, 2015).
# The whole screen tested about 310,000 compounds, of which about 2,200 (0.71%) showed an effect of 50% or more. Effects have a minus sign here. This is one part of the list.
# Molecular target: human ether-à-go-go-related gene (hERG) potassium channel (human, UniProt Q12809)
# Assay: primary screen, population patch clamp on CHO cells stably expressing hERG
# Sequence of human ether-à-go-go-related gene (hERG) potassium channel (Q12809 whole entry, looked up): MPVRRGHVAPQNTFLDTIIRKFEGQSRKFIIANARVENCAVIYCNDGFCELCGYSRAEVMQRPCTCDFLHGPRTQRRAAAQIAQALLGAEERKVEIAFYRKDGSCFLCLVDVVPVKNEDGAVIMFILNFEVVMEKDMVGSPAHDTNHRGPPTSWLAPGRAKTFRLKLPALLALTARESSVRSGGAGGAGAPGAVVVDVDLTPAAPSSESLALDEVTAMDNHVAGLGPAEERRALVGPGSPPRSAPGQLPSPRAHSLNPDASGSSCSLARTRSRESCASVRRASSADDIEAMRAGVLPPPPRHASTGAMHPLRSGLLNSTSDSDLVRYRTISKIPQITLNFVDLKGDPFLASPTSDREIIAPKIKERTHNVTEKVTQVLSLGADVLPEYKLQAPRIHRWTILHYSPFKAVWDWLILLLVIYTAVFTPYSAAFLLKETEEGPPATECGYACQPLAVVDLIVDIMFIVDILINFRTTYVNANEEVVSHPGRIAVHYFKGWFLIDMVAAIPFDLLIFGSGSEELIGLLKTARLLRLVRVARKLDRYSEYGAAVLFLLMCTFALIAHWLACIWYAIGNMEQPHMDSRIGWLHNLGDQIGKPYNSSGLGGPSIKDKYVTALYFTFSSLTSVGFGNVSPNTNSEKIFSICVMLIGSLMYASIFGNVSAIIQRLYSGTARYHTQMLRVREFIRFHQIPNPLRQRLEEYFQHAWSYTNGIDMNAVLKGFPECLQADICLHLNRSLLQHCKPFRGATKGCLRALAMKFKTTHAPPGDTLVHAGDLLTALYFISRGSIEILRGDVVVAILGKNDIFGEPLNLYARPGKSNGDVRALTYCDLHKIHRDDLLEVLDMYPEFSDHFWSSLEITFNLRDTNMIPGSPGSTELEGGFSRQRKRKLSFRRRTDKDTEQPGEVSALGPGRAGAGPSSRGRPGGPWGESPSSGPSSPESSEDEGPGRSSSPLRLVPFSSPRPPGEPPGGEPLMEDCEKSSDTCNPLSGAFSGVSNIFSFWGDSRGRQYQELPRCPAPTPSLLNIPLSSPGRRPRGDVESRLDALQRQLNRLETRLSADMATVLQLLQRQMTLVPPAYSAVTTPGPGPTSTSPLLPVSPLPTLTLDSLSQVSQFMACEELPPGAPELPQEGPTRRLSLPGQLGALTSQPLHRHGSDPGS
row,SMILES,"hERG current change (%, negative = inhibition) at 1uM [%]"
1,CC(=O)Cc1cc(O)c2ccccc2c1OC(=O)c1ccc(Br)cc1,-1.12
2,CCOc1ccc(C(=O)N(CN2CCCC2=O)c2ccccc2)cc1,12.5
3,COc1ccc(NC2=C(C(C)=O)C(c3ccc(OC)cc3)C(C(C)=O)C(C)(O)C2)cc1 (centres unmarked),15.4
4,Cc1cc2oc(=O)cc(CN3CCN(S(=O)(=O)c4cccs4)CC3)c2cc1C,-0.116
5,Cc1[nH]c(C(=O)N/N=C/c2ccc(C(=O)O)cc2)c(C)c1C(=O)N/N=C/c1ccc(C(=O)O)cc1,-3.86
6,Cc1ccc(O)c(C(=O)c2cnn(C(=O)COc3ccc(Cl)cc3)c2)c1,8.86
7,CCOC(=O)c1cc(NC(=O)/C=C\C(=O)O)ccc1Cl,8.58
8,Cc1cc(C)c(S(=O)(=O)N2CCOC2CNC(=O)C(=O)NCCCn2ccnc2)c(C)c1 (centres unmarked),5.34
9,Cc1cccc(N(C(=O)CNC(=O)c2ccco2)C(C(=O)NC2CCCC2)c2cccnc2)c1 (centres unmarked),9.55
10,CC(=O)c1cc(C#N)c(N2CCN(c3ccccc3)CC2)nc1C,11.8
11,C/C(CC(=O)Nc1cccc(Cl)c1Cl)=N\NC(=O)C(=O)N1CCCC1,13
12,O=C(NC1CC2CCC1C2)c1ccco1 (centres unmarked),2.62
13,O=C(CNc1cccc(C(F)(F)F)c1)N/N=C/C1CCCCC1,13.5
14,Cc1cccc(C)c1OCCNC(=O)C(=O)NCc1ccco1,12.6
15,Cc1c(N=Cc2c(O)n(CCc3ccc(F)cc3)c(=O)[nH]c2=O)c(=O)n(-c2ccccc2)n1C,-25.2
16,N/C(=N\OC(=O)C(c1ccccc1)c1ccccc1)c1ccncc1,3.49
17,N#C/C(=C\c1cccc([N+](=O)[O-])c1)C(=O)NCC1CCCO1 (centres unmarked),4.26
18,CCc1ccc(NC2CC(=O)N(CCc3ccc(OC)c(OC)c3)C2=O)cc1 (centres unmarked),-9.49
19,COc1ccc(/C=C(/NC(=O)c2ccccc2)C(=O)N/N=C/c2ccncc2)cc1,11.6

row,SMILES,"hERG current change (%, negative = inhibition) at 1uM [%]"
1,O=C(Nc1ccc(Br)cc1)C1CC(O)CN1C(=O)OCc1ccccc1 (centres unmarked),6.24
2,Cc1ccc(S(=O)(=O)N2CCN(C(=O)c3cc(=O)[nH]c4ccccc34)CC2)c(C)c1,-2.77
3,O=C(CCc1nc2ccccc2c(=O)[nH]1)OCc1ccc(Cl)cc1Cl,6.48
4,COc1cccc(NC(=O)COc2ccc(S(=O)(=O)NC(C)C)cc2)c1,9.42
5,CNC(=O)C1CCN(S(=O)(=O)c2c(C)noc2/C=C/c2ccccc2F)CC1,12.9
6,FC(F)Oc1ccc(C2N=C(c3ccccc3)NO2)cc1 (centres unmarked),12.2
7,COc1ccc(N(C)S(=O)(=O)c2cccc(C(=O)Nc3nnc(C)s3)c2)cc1,10.2
8,Brc1ccc2c(c1)OCCOCCOCCOCCOCCOCCO2,-60
9,CC1CC(C)CN(C(=O)c2nn(C)c3c2CS(=O)(=O)c2ccccc2-3)C1 (centres unmarked),2.63
10,O=C(Cn1c(=O)sc2ccccc21)NCCOc1ccccc1F,3
11,Cc1ccc(-c2n[nH]c(=S)n2/N=C/c2cccn2C)cc1,18.7
12,COc1ccccc1CNC(=O)c1cc(=O)c2ccccc2o1,8.85
13,O=c1cnc2ccccc2n1Cc1ccccc1C(F)(F)F,22.7
14,Cc1cc(C2=NNC(=NC3CCCCC3)SC2)c(C)n1-c1c(C)n(C)n(-c2ccccc2)c1=O,14.6
15,Nc1c(C(=O)NC2CCCC2)c2nc3ccccc3nc2n1/N=C/c1cccnc1,4.84
16,CC/C(=N\N=C1\SC(C)C(=O)N1Cc1ccco1)c1ccccc1 (centres unmarked),8.78
17,Cc1cc(C(F)(F)F)n(-c2nc(C(=O)NNS(=O)(=O)c3ccccc3[N+](=O)[O-])cs2)n1,8.87
18,c1csc(-c2nc3c4ccccc4c4ccccc4c3[nH]2)c1,15.8
19,COc1ccccc1/C=C1\N=C(C(C)(C)C)OC1=O,11.9

row,SMILES,"hERG current change (%, negative = inhibition) at 1uM [%]"
1,Cc1nc2sc(C(c3ccccc3)N3CCN(C)CC3)c(O)n2n1 (centres unmarked),4.53
2,CC(C)(C)c1ccc(C(=O)NNc2cc(N3CCOCC3)nc(N3CCOCC3)n2)cc1,-0.236
3,O=C(/C=C/c1ccccc1Cl)NCc1ccco1,-10.3
4,Cc1cccc(C)c1-n1c(SCC(=O)Nc2ccc(C(=O)O)cc2)nnc1-c1cccc(S(=O)(=O)N(C)C)c1,7.98
5,Clc1ccc(CSc2nnc(-c3sccc3-n3cccc3)o2)cc1,1.6
6,CC/C(C)=N/Nc1cccc([N+](=O)[O-])c1,16.9
7,CN(C)c1ccc(C(=S)NC2CCCCC2)cc1,18.4
8,O=c1[nH]c(=O)n(-c2ccccc2)c(O)c1/C=C/C=Nc1ccccc1,14.5
9,O=C(O)C(Cc1ccccc1)N1CCS(=O)(=O)CC1 (centres unmarked),11.4
10,O=C(O)c1ccccc1-n1cnnn1,-5.96
11,CC(C)Cc1nnc(NC(=O)CCC(=O)N2CCN(S(=O)(=O)c3ccccc3)CC2)s1,13
12,Cc1nc(-c2coc3cc(C)c(N=O)c(O)c3/c2=N\N)cs1,5.84
13,CC1=CC(C)C(C(=O)O)C(C(=O)N2CCN(C)CC2)C1 (centres unmarked),12.5
14,CCOc1ccc(C(=O)Nc2cccc(C(=O)O)c2)cc1Cl,9.1
15,CCOc1c2ccc(C(=O)N[C@H](C)C3CCCCC3)cc2nn1CC,-2.69
16,CC1CCCN(CC(O)CN)C1 (centres unmarked),16.7
17,O=C1c2cccc(OCC(=O)N3CCCc4ccccc43)c2CCN1Cc1ccc(Br)cc1,16.2
18,CC(C)(C)c1nnc2sc(SCC(=O)c3ccccc3)nn2c1=O,2.57
